Experimental data as given in the supplement of paper PMC10369915.
Some of the results follow. Rule as the data show it: active = 3.2 or more and inactive = the rest. Only a few entries rise above the background.

B1: ALAS2_Y199_R204Q (peptide)
chain: WCSNDYLGMSQ
B2: ALB_Y174_Y174F (peptide)
chain: RHPYFFAPELL
B3: ALB_Y287_Q292R (peptide)
chain: ADLAKYICENR
B4: ALB_Y343_D338G (peptide)
chain: GVCKNYAEAKD
B5: ALB_Y343_D338V (peptide)
chain: VVCKNYAEAKD
B6: ALB_Y343_N342K (peptide)
chain: DVCKKYAEAKD
B7: ALB_Y377_E382K (peptide)
chain: RLAKTYETTLK
B8: ALB_Y394_D389H (peptide)
chain: HPHECYAKVFD
B9: ALB_Y394_D399N (peptide)
chain: DPHECYAKVFN
B10: ALB_Y521_D518N (peptide)
chain: EVNETYVPKEF
B11: ALCAM_Y298 (peptide)
chain: RSSNTYTLTDV
B12: ALDH1A1_Y119_N121S_YF (peptide)
chain: LFSNAYLSDLA
B13: ALDH1A1_Y119_YF (peptide)
chain: LFSNAYLNDLA
B14: ALDH1A3_Y492 (peptide)
chain: RELGEYALAEY
B15: ALDH1A3_Y492_A493P (peptide)
chain: RELGEYPLAEY
B16: ALDH1A3_Y492_A493P_YF (peptide)
chain: RELGEYPLAEF
B17: ALDH2_Y332_E337V (peptide)
chain: VQEDIYDEFVV
B18: ALDH2_Y497_E496K (peptide)
chain: RELGKYGLQAY
B19: ALDH2_Y497_E496K_YF (peptide)
chain: RELGKYGLQAF

What follows are binders tested against SHP2 C-SH2 domain E139D (assay: enrichment score (SH2-bound / input frequency) (ratio); bacterial display of known human phosphotyrosine sites (pTyr-Var adds point mutants) read by sequencing; higher = stronger binding; tyrosines were phosphorylated by kinases first). Settings: peptide library: pTyr-Var.
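Also: displayed peptides selected on beads carrying the immobilized SH2 domain, with library peptides lacking any tyrosine serving as negative controls.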

Enrichment score, inactive:
B1 0.973, B2 1.49, B3 0.941, B4 0.562, B5 0.83, B6 0.539, B7 0.6, B8 1.34, B9 0.594, B10 0.517, B11 0.736, B12 1.2, B13 1.43, B14 0.72, B15 0.68, B16 0.557, B17 0.535, B18 0.539, B19 0.741

What follows are binders tested against SHP2 C-SH2 domain wild-type in the same assay as above. Settings: peptide library: pTyr-Var.

Enrichment score, inactive:
B1 1.08, B2 1.47, B3 0.878, B4 0.443, B5 0.75, B6 0.682, B7 0.77, B8 1.93, B9 1.03, B10 0.465, B11 0.81, B12 0.859, B13 1.17, B14 0.526, B15 0.776, B16 1, B17 0.689, B18 0.896, B19 0.823

These binders were tested against SHP2 N-SH2 domain L43F in the same assay as above. Settings: peptide library: pTyr-Var.

Enrichment score, inactive:
B1 0.924, B2 1.64, B3 0.834, B4 0.648, B5 0.635, B6 0.695, B7 0.696, B8 2.02, B9 0.63, B10 0.588, B11 0.989, B12 0.803, B13 1.27, B14 0.831, B15 0.582, B16 0.498, B17 0.686, B18 0.565, B19 0.678

What follows are binders tested against SHP2 N-SH2 domain T42A in the same assay as above. Settings: peptide library: pTyr-Var.

Enrichment score, inactive:
B1 1.02, B2 1.62, B3 0.702, B4 0.5, B5 0.642, B6 0.493, B7 0.388, B8 1.76, B9 0.608, B10 0.526, B11 1.82, B12 0.821, B13 1.51, B14 0.875, B15 0.796, B16 0.647, B17 0.613, B18 0.692, B19 0.679

These binders were tested against SHP2 N-SH2 domain T52S in the same assay as above. Settings: peptide library: pTyr-Var.

Enrichment score, inactive:
B1 0.813, B2 1.5, B3 0.739, B4 0.588, B5 0.604, B6 0.55, B7 0.674, B8 1.8, B9 0.67, B10 0.59, B11 1.02, B12 1.24, B13 1.25, B14 0.812, B15 0.597, B16 0.623, B17 0.807, B18 0.684, B19 0.829

What follows are binders tested against SHP2 N-SH2 domain wild-type in the same assay as above. Settings: peptide library: pTyr-Var.

Enrichment score, inactive:
B1 0.886, B2 1.61, B3 1.04, B4 0.542, B5 0.949, B6 0.944, B7 0.722, B8 1.56, B9 0.726, B10 0.653, B11 0.872, B12 0.707, B13 1.14, B14 0.819, B15 1.33, B16 0.561, B17 0.852, B18 0.796, B19 0.902
